# In the supplement of paper PMC3334620:
# Over roughly 33,000 sequences, “E-score (-0.5 to 0.5)” has its median near -0.036; the highest 2% begin near 0.37. This is one part of the list.
# Target: T1, Yer064c (UniProt P40041)
# T1 sequence: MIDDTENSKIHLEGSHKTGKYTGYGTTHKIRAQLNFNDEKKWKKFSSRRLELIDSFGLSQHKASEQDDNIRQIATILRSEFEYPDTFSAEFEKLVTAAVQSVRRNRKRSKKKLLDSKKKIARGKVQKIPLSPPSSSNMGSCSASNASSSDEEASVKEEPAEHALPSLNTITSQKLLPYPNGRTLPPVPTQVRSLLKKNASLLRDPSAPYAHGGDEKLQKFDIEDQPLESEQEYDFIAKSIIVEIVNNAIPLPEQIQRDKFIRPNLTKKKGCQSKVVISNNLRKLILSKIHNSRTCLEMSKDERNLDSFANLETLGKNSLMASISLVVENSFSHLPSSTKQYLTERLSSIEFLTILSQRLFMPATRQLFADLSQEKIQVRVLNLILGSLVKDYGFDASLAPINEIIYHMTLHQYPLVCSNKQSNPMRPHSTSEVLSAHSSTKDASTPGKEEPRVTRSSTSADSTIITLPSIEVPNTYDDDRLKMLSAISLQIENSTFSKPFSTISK
# Test: PBM E-score (8-mer binding enrichment) (E-score (-0.5 to 0.5)); higher = stronger / more preferred TF binding; most listed sequences are background and not binding sites
# Settings: protein concentration: 200 nM; construct: GST-full length
# Procedure: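 Universal 'all 10-mer' protein binding microarrays (Agilent AMADID 015681) probed with GST-tagged S. cerevisiae TFs (full-length or DBD) made by in vitro transcription/translation (PURExpress), about 100-200 nM. Bound TF was detected with fluorescent anti-GST. Each ungapped 8-mer (which stands for itself and its reverse complement) is scored by the PBM enrichment score (E-score), a modified Wilcoxon-Mann-Whitney statistic from -0.5 to +0.5, computed with the Universal PBM Analysis Suite. Scale: above 0.35 generally sequence-specific binding.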
row,Sequence,PBM E-score
1,ACGAATGG,0.0198
2,AATGCGCT,-0.195
3,CGCAACCA,-0.14
4,CTTTGGGC,-0.152
5,CAACGCTA,-0.258
6,GATGTAGA,0.0882
7,GGCACCAA,-0.273
8,ATTCGGAC,0.143
9,ATCGGTCG,-0.0842
10,ACTAATAT,0.198
11,AACGCAAC,0.0324
12,AAAGCTCG,-0.059
13,GTAAATGA,0.248
14,GGTCTACA,0.0785
15,AATTACAT,0.0215
16,CGGGACAA,-0.248
17,CAGATGGC,0.122
18,ACATGAAA,0.0592
19,CATATGGC,0.0569
20,GTTGGTGA,0.115
21,ATTTGAGG,-0.0184
22,GGTCACTA,-0.234

row,Sequence,PBM E-score
1,CAGGGAAC,-0.175
2,AATACGCT,-0.136
3,AATTCAGT,0.0739
4,AAGAACCA,-0.0337
5,AAATGTGC,-0.207
6,GGCTCCGA,-0.0603
7,TGCGACCA,-0.16
8,CCGTGTGA,0.0576
9,CGTGCAGA,-0.209
10,CATTCGAG,0.0274
11,AATTAAGG,-0.0727
12,TCTCGGAA,0.113
13,AGCCAAAG,-0.0269
14,CCATATAA,-0.0141
15,AGCGTGCG,-0.0137
16,CCGCCCTA,-0.113
17,CATTTAGC,-0.0354
18,GTAGAAGA,0.003
19,AATACGAA,-0.0287
20,CACAACCC,-0.0187
21,AACAGCTA,-0.109
22,GAAGAGAC,0.115

row,Sequence,PBM E-score
1,GCAAAGGC,-0.15
2,CACATAAG,0.142
3,ATTAGAAA,0.0106
4,AGTATACT,0.238
5,CACCGGGA,-0.0854
6,GAGCGTAA,0.0724
7,AGCCAACT,-0.107
8,ACGCCGAT,-0.221
9,AACTGATT,0.229
10,GGAAGACC,-0.167
11,GACGAGTC,0.408
12,CCGTTACG,-0.124
13,AGCGTAAC,0.027
14,AAAGTTGG,0.0828
15,AAAATGAT,0.197
16,GGTGCCAC,-0.31
17,TAATGATA,0.0674
18,CGCTGCGA,0.095
19,ACGCTCTA,-0.153
20,CTTTCCCA,-0.0754
21,AGTGGGTC,-0.203
22,CTCCGTCA,-0.0416

row,Sequence,PBM E-score
1,AGCGCAAG,-0.067
2,CTCAATCA,0.402
3,CCTGGCCC,-0.194
4,AGGCACCT,-0.264
5,AATCTGCT,0.0664
6,AGGTTGCC,-0.287
7,CTAAGTAA,0.204
8,ACGTAACG,-0.0991
9,GACCGTGA,0.0756
10,AAAGCAAA,-0.00787
11,CACCCATC,0.102
12,CAATTAAG,0.056
13,AAACAGGT,-0.0996
14,CTGTGGCC,-0.373
15,AGCTGTTC,-0.216
16,AATCTCCC,0.139
17,AAGTTCAA,-0.00078
18,AATCAGGT,0.378
19,TCAACTCA,0.165
20,GAGCCAAA,-0.1
